# Measured values: publication PMC4336329 (PLoS ONE, 2015)
# In all, about 310,000 compounds went through this assay and about 2,200 (0.71%) showed an effect of 50% or more. Effects have a minus sign here. This is one part of the list.
# Target: human ether-à-go-go-related gene (hERG) potassium channel (human, UniProt Q12809)
# Assay: primary screen, population patch clamp on CHO cells stably expressing hERG
# human ether-à-go-go-related gene (hERG) potassium channel, sequence (Q12809 whole entry, looked up): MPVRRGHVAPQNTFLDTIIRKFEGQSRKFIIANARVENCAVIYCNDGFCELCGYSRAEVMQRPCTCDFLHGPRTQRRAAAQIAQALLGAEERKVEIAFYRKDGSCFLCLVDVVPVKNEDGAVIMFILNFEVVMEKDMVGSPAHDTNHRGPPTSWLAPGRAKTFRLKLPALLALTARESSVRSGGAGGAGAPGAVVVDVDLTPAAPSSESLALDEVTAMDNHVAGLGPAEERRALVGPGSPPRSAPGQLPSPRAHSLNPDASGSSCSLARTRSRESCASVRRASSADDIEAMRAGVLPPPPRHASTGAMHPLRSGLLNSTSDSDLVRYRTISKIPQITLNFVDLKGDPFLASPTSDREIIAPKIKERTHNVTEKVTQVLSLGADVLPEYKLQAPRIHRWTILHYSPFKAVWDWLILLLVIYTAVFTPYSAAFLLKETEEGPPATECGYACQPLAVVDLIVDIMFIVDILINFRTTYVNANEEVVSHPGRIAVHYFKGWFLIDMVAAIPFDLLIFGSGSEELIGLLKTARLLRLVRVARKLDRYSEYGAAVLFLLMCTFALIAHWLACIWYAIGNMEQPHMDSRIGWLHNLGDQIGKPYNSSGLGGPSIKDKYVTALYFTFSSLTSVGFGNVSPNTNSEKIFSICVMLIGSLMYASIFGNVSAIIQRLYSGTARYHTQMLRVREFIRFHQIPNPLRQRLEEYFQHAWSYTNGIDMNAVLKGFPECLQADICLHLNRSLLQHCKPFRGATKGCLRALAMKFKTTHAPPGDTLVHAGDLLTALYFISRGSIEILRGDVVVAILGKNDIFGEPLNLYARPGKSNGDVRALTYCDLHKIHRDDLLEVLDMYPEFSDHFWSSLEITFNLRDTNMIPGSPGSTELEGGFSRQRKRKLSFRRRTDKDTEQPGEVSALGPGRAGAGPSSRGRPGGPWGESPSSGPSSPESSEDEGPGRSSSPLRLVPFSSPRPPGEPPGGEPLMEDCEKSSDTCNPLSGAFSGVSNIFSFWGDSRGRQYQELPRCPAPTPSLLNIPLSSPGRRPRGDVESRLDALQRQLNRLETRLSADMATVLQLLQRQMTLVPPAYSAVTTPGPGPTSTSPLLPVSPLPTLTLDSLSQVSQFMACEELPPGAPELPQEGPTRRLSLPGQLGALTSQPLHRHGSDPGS
row,SMILES,"hERG current change (%, negative = inhibition) at 1uM"
1,COc1cccc(-c2sc3ccc(OC)cc3c2C#CC(C)(C)O)c1,13.8%
2,O=C(Nc1nccs1)c1ccc(COc2ccccc2Cl)o1,7.69%
3,O=C(O)/C=C\C(=O)Nc1ccc(N2CCN(c3ccc(Cl)c(Cl)c3)CC2)cc1,16.3%
4,Cc1ccc(C(=O)NC(=S)NCc2ccccc2)cc1Br,4.54%
5,O=C(NCc1cccnc1)c1cccn2c(=O)c3sccc3nc12,-16.3%
6,Cc1nn(C)c(Cl)c1CN1CCN(CCC(C)C)C(CCO)C1 (centres unmarked),9.94%
7,CC(C)(C)NC(=O)C(c1ccncc1)N(C(=O)Cn1nnc(-c2ccc(F)cc2)n1)c1ccccc1 (centres unmarked),8.88%
8,CCOc1ccc(CC(=O)Nc2nccs2)cc1,-9.48%
9,COc1cccc(N2CC(C(=O)Nc3ccc(F)cc3)CC2=O)c1 (centres unmarked),10.6%
10,CN1C(=S)SC(C)(C)C1(C)NO (centres unmarked),10.6%
11,O=C(Oc1ccccc1N1C(=O)C2CCCCC2C1=O)c1ccc(Cl)cc1 (centres unmarked),6.32%
12,Cl.c1ccc2c(N3CCNCC3)cccc2c1,13.5%
13,COc1cc(NS(=O)(=O)c2ccc(NC(=S)NC(=O)C3CCCC3)cc2)nc(OC)n1,-1.13%
14,NS(=O)(=O)c1ccc(NC(=O)CCCC(=O)O)cc1,0.755%
15,Cc1ccccc1Cn1ccc(NC(=O)c2cnn3c(C(F)(F)F)cc(-c4ccco4)nc23)n1,12.9%
16,O=C(Cc1cccc(C(F)(F)F)c1)OCN1C(=O)c2ccccc2C1=O,9.89%
17,CN(C)c1cc(-c2ccc(Cl)cc2)oc(=O)c1Cl,7.71%
18,Nc1nc(SCc2ccccc2Cl)n[nH]1,14%
19,O=c1c2ccccc2nc(SCc2cn3ccsc3n2)n1-c1ccc(F)cc1,11%

row,SMILES,"hERG current change (%, negative = inhibition) at 1uM"
1,COc1ccc(CN(C(=O)c2ccco2)c2ccccc2)cc1,9.85%
2,CCc1nn(CC(=O)NCCCc2ccccc2)c(=O)c2cc3cc(F)ccc3n12,5.07%
3,COc1ccc(CC(=O)NCC2CCCN(Cc3cccc(SC)c3)C2)cc1 (centres unmarked),-7.33%
4,CCOc1cc(/C=C(\C#N)C(=O)NCC2CCCO2)ccc1OCC(N)=O (centres unmarked),19.4%
5,O=C(CSc1nnc(-c2cccs2)n1Cc1ccco1)c1ccc2c(c1)OCO2,-0.841%
6,COCCN1C(=O)N(c2cccc(OC)c2)C(=O)C1CC(=O)Nc1ccc(OC)cc1 (centres unmarked),2.61%
7,COc1ccc(N(CC(=O)NN=C2CCCC2)S(=O)(=O)c2ccccc2)cc1Cl,11.1%
8,CC(O)CNc1nc2c(c(=O)n(C)c(=O)n2C)n1CCc1ccccc1 (centres unmarked),17.1%
9,Cc1ccc(CNC(=O)C2CC(c3cccc([N+](=O)[O-])c3)=NO2)cc1 (centres unmarked),3.59%
10,COC(=O)/C=C1/S/C(=N/NC(=O)c2ccc(Cl)cc2Cl)NC1=O,3.61%
11,Cc1cccc(N2C(=O)SC(N(C)c3ccccc3)C2=O)c1 (centres unmarked),-0.856%
12,O=C(COC(=O)c1cccs1)Nc1ccccc1Cl,14.6%
13,CCc1ccc2oc(-c3cc(N)ccc3O)nc2c1,9.06%
14,Nc1nnc(CC(=O)N/N=C/c2ccccc2OCc2ccccc2F)s1,14.3%
15,CC1(C)C([N+](=O)[O-])C(c2ccc(Cl)cc2)NC(c2ccc(Cl)cc2)C1[N+](=O)[O-] (centres unmarked),12.2%
16,CCCNS(=O)(=O)c1ccc(OCC(=O)N2CCC(C(=O)OCC)CC2)cc1,2.86%
17,CC(=O)c1ccc(OCC(O)CN2CCN(CCN3C(=O)c4cccc5cccc(c45)C3=O)CC2)cc1.Cl (centres unmarked),1.61%
18,CNc1ccc(S(=O)(=O)NCC(=O)OC(C)C(=O)N(C)Cc2ccccc2)cc1[N+](=O)[O-] (centres unmarked),12.2%
19,COc1ccccc1/C=C/C(=O)NCC(=O)N/N=C/c1ccccc1[N+](=O)[O-],3.16%

row,SMILES,"hERG current change (%, negative = inhibition) at 1uM"
1,CNC(=O)c1nnn(Cc2ccccc2)c1NC(=O)C(F)(F)F,16.8%
2,Cc1nc(-c2cccc(NC(=O)c3ccc(-n4nccc4C)cc3)c2)cs1,8.67%
3,O=Cc1cccc(OC(=O)c2ccc(Cl)cc2Cl)c1,15%
4,COc1ccc(N2C(=O)c3ccccc3NC2c2ccc(OC)c(Cn3nnc4ccccc43)c2)cc1 (centres unmarked),1.74%
5,CC(=O)O[C@H]1CCC2C3CCC4=CC(=O)CCC4=C3C=C[C@@]21C (some centres unmarked),8.23%
6,CCC(=O)Nc1ccc(C(=O)NNC(=O)c2cc(OC)c(OC)c(OC)c2)cc1,11.9%
7,COCC(=O)Nc1ccc(C(=O)Nc2ccccc2Cl)cc1,12.4%
8,Cc1cccc(C)c1NC(=O)N1CCCCCCC1,11.5%
9,COc1ccccc1-c1cn[nH]c1-c1ccc(OCc2ccccc2F)cc1O,12.6%
10,Cc1ccccc1NC(C)C(=O)N/N=C/c1c[nH]c2ccccc12 (centres unmarked),29.1%
11,Cc1ccc(C)c(NC(=S)NCCSc2ccc(Cl)cc2)c1,11.9%
12,O=C(NCc1ccc(C(F)(F)F)cc1)C1CC(c2ccc(C(F)(F)F)cc2)=NO1 (centres unmarked),8.63%
13,Cc1coc2cc3oc(=O)c(CCC(=O)NCCCN4CCCC4=O)c(C)c3cc12,11.8%
14,COc1ccc2nc(SCC(=O)NC(C)C)[nH]c2c1,17.7%
15,COc1cccc2cc(C(=O)N3CCCCC3C)c(=O)oc12 (centres unmarked),7.58%
16,CC(=O)C1=C(C)NC(=O)CC1c1ccccc1Cl (centres unmarked),8.02%
17,COc1cccc(NS(=O)(=O)c2ccc3c(c2)N(C(C)=O)CCS3)c1,11%
18,CC(C)n1nnnc1SCC(=O)NC1CCCC1,13%
